Source: paper PMC12136788
The other results are listed elsewhere or left out.

T1: UNK ZnF1-3 (human, UniProt Q9C0B0 31-174)
T1 sequence: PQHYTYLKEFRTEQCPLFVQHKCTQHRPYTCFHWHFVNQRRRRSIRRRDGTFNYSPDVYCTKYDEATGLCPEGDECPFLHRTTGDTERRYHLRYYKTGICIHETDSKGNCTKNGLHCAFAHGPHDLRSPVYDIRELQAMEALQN

B1: chr11:77378495:77378496:-_ENSG00000048649_ENST00000308488|hu_mus|FALSE|FALSE (ssRNA)
RNA: GGGAGUUCUACAGUCCGACGAUCUGAAUAGUCAUCUGUGCUUCGGCCCCGUUUUCGAACAGAUCGCUUCGAUUCUUUUGUUAGCUCAUCAUCUUCAGAGUUCUUGGACAUAAAGCUCUCUUCACUCUCUGAGCUGGAAAGUCUCAACAGAGGAUUGAGCAUCA
B2: chr4:115894766:115894767:+_ENSMUSG00000028698_ENSMUST00000030464|mus_hu|mus_mus_mus_hu_True|18_28 (ssRNA)
RNA: GGGAGUUCUACAGUCCGACGAUCUUCCACACGGAAAUGUACUUCGGGUUUUCCAACGGCCAGUACCAGUCCGGCCAAACUACCCGAACAGGGUCCUCCCCCUCUCUUCUCUCCUCCUAAAGCACCCGCCCCCGAACUUUCAAGCAACAGAGGAUUGAGCAUCA
B3: chr11:46405157:46405158:+_ENSG00000110492_ENST00000395566|hu_hu|hu_hu_hu_mus_False|8_98 (ssRNA)
RNA: GGGAGUUCUACAGUCCGACGAUCCCCUCCCCACUUUGGCUGGGGAGUGUGGGCGUGAGAGGACAGGCGUGAUUGACAGAGCUGACAGGAAGACAAAAGGCACUGGUGGGUUAUAUCUUGGGCCUGUGAGAGGGAGGGGCUCCGCAACAGAGGAUUGAGCAUCA
B4: chr1:154246031:154246032:+_ENSG00000143575_ENST00000328703|hu_hu|motif|central (ssRNA)
RNA: GGGAGUUCUACAGUCCGACGAUCACCUGGAAGUUCAGGAGGAUGGGAAGGCAAGGUCCAGGCCCCCAUAUCGCUGAAGAUGCGGUUGAAAUCUCGUACUAGGUCAUCAAAGCCGAAGUUAUCGUGGAAACGUAUCCCUCCUCCCAACAGAGGAUUGAGCAUCA
B5: chr5:95152273:95152274:-_ENSG00000173221_ENST00000237858|hu_mus|FALSE|FALSE (ssRNA)
RNA: GGGAGUUCUACAGUCCGACGAUCCAGCCGAGUCAUCAGCUCCCCAGUCUGUUGCAUGGAGAUUAGAUCACUGCAUCCGCCUAUGCAGUCUUUACCUAUGAAGACCCGAGGAACUGUUCUCGCUCCGGUGAGCUGUUGUAAAUACAACAGAGGAUUGAGCAUCA
B6: chrX:20248820:20248821:+_ENSMUSG00000001924_ENSMUST00000001989|mus_mus|mus_mus_mus_hu_True|8_88 (ssRNA)
RNA: GGGAGUUCUACAGUCCGACGAUCGGCGAAGUCCGUCACCACAAAGUCAGGCUCUACCAGUGAGGCCACCAAGGAUUUAAAGCUAAUCUUCUUAGGUACUUUGACCUGACUGACGAUGCCUCCACGGAUGUAGUCAGAGAAGUUCAACAGAGGAUUGAGCAUCA

target: T1, UNK ZnF1-3; test: nsRBNS (natural sequence RNA bind-n-seq); RBNS binding buffer (assumed for nsRBNS): 25 mM Tris pH 7.5, 150 mM KCl, 3 mM MgCl2, 0.01% Triton X-100, 500 ug/ml BSA, 20 U/ml SUPERase-In, 4 C; UNK is unkempt and MSI1 is Musashi-1; names of the RNAs are library labels; protein concentration not given here; high values mean tight binding

Binder	binding signal [enrichment R]
B1	0.519
B2	0.815
B3	2.67
B4	1.31
B5	0.989
B6	1.07
